The supplement of paper PMC6531468
The list shows a part of the results. Values come from read counts of a selection and are noisy. Each score is taken over the longer molecules that contain the sequence shown.

Tested on: IMP3 KH1-4
Assay: 6-mer SELEX enrichment z-score vs GST control; IMP3 is the RNA-binding protein IGF2BP3; higher = more enriched by binding
Conditions: construct: KH1-4 (164-579); SELEX round: R4
Method: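 SELEX-seq with GST-tagged IMP3 KH1-4 (Pro164-Lys579) and an N40 RNA pool, round 4. 6-mer z-score of sequence-tag enrichment normalised to the corresponding GST SELEX round; RNA k-mers written as DNA (T for U).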

Chain of IMP3 KH1-4 (chain, as listed by the source): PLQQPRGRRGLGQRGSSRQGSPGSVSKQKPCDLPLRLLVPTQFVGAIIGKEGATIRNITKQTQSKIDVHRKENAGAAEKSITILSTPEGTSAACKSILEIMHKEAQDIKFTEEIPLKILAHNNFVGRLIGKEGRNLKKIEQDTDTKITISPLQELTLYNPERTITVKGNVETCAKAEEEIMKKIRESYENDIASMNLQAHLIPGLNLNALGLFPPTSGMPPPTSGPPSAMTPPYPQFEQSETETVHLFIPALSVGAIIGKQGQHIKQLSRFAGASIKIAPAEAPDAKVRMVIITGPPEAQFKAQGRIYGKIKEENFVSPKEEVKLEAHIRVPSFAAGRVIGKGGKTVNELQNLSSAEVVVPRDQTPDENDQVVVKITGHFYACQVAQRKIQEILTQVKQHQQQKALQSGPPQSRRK

Row | Sequence | 6-mer SELEX enrichment z-score
1 | GACGAG | -1.72
2 | GTCGAA | -0.762
3 | ATACCT | -1.03
4 | CTGTTG | -0.097
5 | AGGCTA | 0.188
6 | AGGCCT | -0.037
7 | CCACTG | -0.065
8 | GTGTAG | -1.91
9 | GTAGGA | -0.369
10 | TACAGC | 0.21
11 | GAACAA | 0.366
12 | TTCGGT | 0.038
13 | ACCTTA | -0.516
14 | TCACTG | 0.761
15 | ATTTTA | 1.47
16 | TTCATC | 1.13
17 | TACAAC | 0.803
18 | GATAGC | -0.079
19 | TGAACC | -0.861
20 | TACAAG | 0.416

Row | Sequence | 6-mer SELEX enrichment z-score
21 | ATGATT | 1.69
22 | CCTATT | 0.399
23 | ATTAAG | 0.753
24 | CTAGCG | -1.48
25 | GCACCC | -0.268
26 | TGCTGA | -0.235
27 | ACAGTT | 0.565
28 | TGAGGA | 0.796
29 | GCCTTC | 0.004
30 | CAAACA | 0.199
31 | GAATAC | 0.373
32 | GGTGTA | -0.504
33 | TTGCCC | -1.01
34 | GTACTT | -0.531
35 | ACTCCG | -0.901
36 | ACTTCG | -0.346
37 | AGACTC | -0.771
38 | CTTCGC | 0.032
39 | GGGACC | -0.833
40 | GCCGAC | -1.15
